According to PubChem BioAssay AID1030 (National Center for Advancing Translational Sciences (NCATS), 2008):
The campaign covered roughly 220,000 compounds. About 16,000 (7.3%) were called active. The shares of active, inactive and inconclusive entries below differ from those in the screen. The call rests on the fitted dose curve; in most records, active means well fitted inhibition curve with a large enough effect (not every such curve was filed as active); inconclusive means small, poorly fitted or top-dose-only effect, or another doubt; inactive means no such curve, though single readings can be large or run the other way. No potency is given beside an inconclusive call; the fits are too rough. Some compounds were tested as several samples or in several runs, with calls that do not always agree.

molecular target: Aldehyde dehydrogenase 1A1 (Homo sapiens) (UniProt P00352); assay: qHTS Assay for Inhibitors of Aldehyde Dehydrogenase 1 (ALDH1A1); conditions: Purified ALDH1A1, NADH fluorescence, propionaldehyde substrate; series mostly up to 75.3 µM
Potency means the concentration at half of the fitted maximal effect; tags describe the fitted curve by direction and shape.

Chain of UniProt P00352 (P00352 whole entry, looked up): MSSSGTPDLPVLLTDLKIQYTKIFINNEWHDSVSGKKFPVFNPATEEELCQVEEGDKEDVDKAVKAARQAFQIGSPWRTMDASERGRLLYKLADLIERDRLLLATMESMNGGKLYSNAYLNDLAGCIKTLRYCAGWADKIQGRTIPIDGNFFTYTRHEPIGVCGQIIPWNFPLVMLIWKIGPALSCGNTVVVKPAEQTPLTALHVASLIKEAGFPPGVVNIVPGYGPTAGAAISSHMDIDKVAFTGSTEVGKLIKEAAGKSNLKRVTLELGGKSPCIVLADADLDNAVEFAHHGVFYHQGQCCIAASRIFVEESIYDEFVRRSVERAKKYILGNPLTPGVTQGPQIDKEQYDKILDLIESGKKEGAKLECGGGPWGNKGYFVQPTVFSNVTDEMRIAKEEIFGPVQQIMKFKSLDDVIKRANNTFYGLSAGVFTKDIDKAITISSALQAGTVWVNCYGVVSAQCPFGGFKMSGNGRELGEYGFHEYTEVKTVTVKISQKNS

Row | Compound | Potency
1 | CCOC(=O)c1cnc(SC)nc1Sc1cc(Cl)ccc1Cl | inconclusive [inhibitor, single point]
2 | O=C1OC2(CCCCC2)OC(=O)C1=CNc1nc2ccccc2s1 | active: 11.2 µM
3 | COc1ccc(N2CCN(C(=O)CSc3ccc([N+](=O)[O-])cc3)CC2)cc1 | inconclusive [inhibitor, single point]
4 | CCNC(=S)Nc1ccc(Cc2ccncc2)cc1 | inconclusive [inhibitor, single point]
5 | COc1ccc(/C=C(/NC(=O)c2ccc(OC)cc2)C(=O)NCCc2c[nH]c3ccccc23)cc1 | inconclusive [inhibitor, partial curve]
6 | CC1CCc2nc(/C(C#N)=C/c3cccnc3)sc2C1 (stereo not given) | inconclusive [inhibitor, partial curve]
7 | CCc1ccc(NC(=S)N(Cc2ccc(Cl)cc2)Cc2ccc(C(=O)O)cc2)cc1 | inconclusive [inhibitor, single point]
8 | COc1ccc2c(c1)-c1nc(/N=C/c3ccc(O)cc3)sc1CC2 | active: 4.47 µM
9 | CC(=O)Nc1cccc(C(=O)/C=C/c2cccs2)c1 | inconclusive [inhibitor, single point]
10 | COC(=O)c1ccc(COc2ccc3c(C)c(C)c(=O)oc3c2)o1 | inconclusive [inhibitor, partial curve]
11 | CCCOc1ccc(-c2nc(C#N)c(NCCCn3ccnc3)o2)cc1 | inconclusive [inhibitor, partial curve]
12 | CCn1c2ccccc2c2nnc(SCC(=O)c3ccccc3)nc21 | inconclusive [inhibitor, partial curve]
13 | Cc1c(C#N)c2ncn(Cc3ccccn3)c(=O)c2n1-c1ccccc1 | inconclusive [inhibitor, single point]
14 | O=C1CCN(N=Nc2cccc(Cl)c2)N1 | active: 20 µM
15 | Cn1c(=S)[nH]c2ccccc21 | inactive
16 | Nc1nc2nccc(-c3ccco3)n2n1 | inconclusive [inhibitor, partial curve]
17 | C=CCNC(=O)c1ccccc1Cl | inactive
18 | Cn1c(C(=O)OC(C(=O)NC2CCCCC2)c2cccnc2)cc2sccc21 (stereo not given) | inactive
19 | COc1ccc(/C=C2\N=C(SC)SC2=O)cc1OC | inactive
20 | N#C/C(=C\C1=C(N2CCOCC2)C(=C/c2cccc([N+](=O)[O-])c2)/CC1)C(=O)Nc1ccccc1F | inactive
21 | CN1CCN(C(=S)NCCc2ccccc2)CC1 | inconclusive [inhibitor, partial curve]
22 | COc1ccc2nc(CC(C)(C)CC(=O)O)c[n+]([O-])c2c1 | inconclusive [inhibitor, partial curve]
23 | Cc1ccsc1C1NC(=O)c2c(sc3c2CCN(C)C3)N1 (stereo not given) | inconclusive [inhibitor, single point]
24 | CCN(CC)CCN1C2=C(C(=O)CC(C)(C)C2)C(c2cccc(F)c2)C2=C1CC(C)(C)CC2=O | inconclusive [inhibitor, partial curve]

Row | Compound | Potency
25 | CCOC(=O)C1CSC2(CCC(c3ccccc3)CC2)N1 (stereo not given) | inconclusive [inhibitor, single point]
26 | C/C(Cn1nnc2ccccc21)=N\NC(=O)c1ccc(Br)cc1 | inconclusive [inhibitor, single point]
27 | CCCC(=O)Nc1nc(-c2ccccc2)c(CC)s1 | inconclusive [inhibitor, single point]
28 | CCOC(=O)C1CCN(C(=O)c2sc3nc(C)nc(N4CCC(C)CC4)c3c2C)CC1 | inactive
29 | CC(/C=C1\SC(=S)N(NC(=O)c2ccc(C)cc2)C1=O)=C\c1ccccc1 | inactive
30 | Cc1cccc(CNc2cc(-c3ccoc3)ncn2)c1 | inconclusive [inhibitor, single point]
31 | C#CCOCCOCCOCCNc1nc(N2CCN(C(=O)[C@H](CCCCN)n3cc([C@@H](N)CO)nn3)CC2)nc(N2CCN(C(=O)[C@H](Cc3cc4ccccc4[nH]3)n3cc([C@@H](N)CC(C)C)nn3)CC2)n1 | inactive
32 | CCCn1c(-c2ccc(F)cc2)nc2c(NCCN(C)C)nc(C)nc21 | inconclusive [inhibitor, single point]
33 | CC1CCN(C(=O)CSc2nc3ccccc3s2)CC1 | inconclusive [inhibitor, single point]
34 | Cc1cc(/C=C2/C(=O)NN(c3ccccc3)C2=O)c(C)n1-c1ccc(O)cc1 | inconclusive [inhibitor, single point]
35 | Cc1cc(C)cc(Oc2ccc(N)cc2)c1 | inconclusive [inhibitor, partial curve]
36 | C=CCNc1nc(-c2ccc(OC)cc2OC)cs1 | inconclusive [inhibitor, single point]
37 | Cc1ccc(C(=O)O/N=C(\c2ccccc2)c2ccncc2)cc1 | inconclusive [inhibitor, single point]
38 | CCn1c(N)c(C(=O)NCc2ccc3c(c2)OCO3)sc1=S | active: 20 µM
39 | CC(C)(C)C(=O)Cn1c(=O)n(CC2CCCO2)c(=O)c2ccccc21 (stereo not given) | inconclusive [inhibitor, single point]
40 | COC(=O)CC1C(=O)NCCN1C(=O)CSc1nc2ccc([N+](=O)[O-])cc2s1 (stereo not given) | inconclusive [inhibitor, single point]
41 | O=C(NCc1ccccc1)Nc1cccn(Cc2ccccc2F)c1=O | inconclusive [inhibitor, single point]
42 | CN1/C(=C\C(=O)CN2C(=O)NC3(CCCCCC3)C2=O)C(C)(C)c2ccccc21 | inconclusive [inhibitor, single point]
43 | COC(=O)CNC(=O)CN1C(=O)N(c2ccc(Cl)cc2)C(N(O)C(=O)Nc2ccc(Cl)cc2)C1(C)C (stereo not given) | inconclusive [inhibitor, single point]
44 | O=C1/C(=C\c2cccs2)N=C(c2cccs2)N1Nc1ccccc1 | active: 14.1 µM
45 | CSc1nc(-c2cccs2)c(C#N)c(=O)[nH]1 | inconclusive [inhibitor, single point]
46 | N#CCSCC(=O)Nc1ccc(Br)cc1 | inactive
47 | O=[N+]([O-])c1ccn(-c2nc(-c3ccccc3)cc(C(F)(F)F)n2)n1 | inconclusive [inhibitor, single point]
48 | CN1CCN(c2ncc3nc(-c4ccc(F)cc4)c(=O)n(Cc4cccs4)c3n2)CC1 | inconclusive [inhibitor, partial curve]

Row | Compound | Potency
49 | COC/C=C/C1=CC2=CC(=O)C(C)(OC(=O)C3CCCC3)C(=O)C2=CO1 (stereo not given) | inactive
50 | CC(=O)c1ccc(NS(=O)(=O)c2ccc(CC(C)C)cc2)cc1 | active: 6.31 µM
51 | Nc1ccccc1C(=O)/C=C/c1ccccc1 | inactive
52 | COc1ccc(CN2C=C3C(=O)C(C)(OC(=O)CCc4ccccc4)C(=O)C=C3C=C2c2ccc(C#N)cc2)cc1 (stereo not given) | active: 3.55 µM
53 | COC(=O)C(Cc1ccc(OC(=O)c2ccc(Cl)cc2)cc1)N1Cc2ccccc2C1=O (stereo not given) | inconclusive [inhibitor, partial curve, poor fit]
54 | CCC(NS(=O)(=O)c1cnn(CC)c1)c1ccccc1 (stereo not given) | inconclusive [inhibitor, single point]
55 | CC12CCC(C/C1=N/OC(=O)c1cccc([N+](=O)[O-])c1)C2(C)C (stereo not given) | inconclusive [inhibitor, single point]
56 | O=C(O)c1cc(-c2ccco2)nc2ccc(Br)cc12 | active: 3.98 µM
57 | CC1CCCC(C)N1/N=C/c1ccccc1C(=O)O (stereo not given) | inconclusive [inhibitor, partial curve, poor fit]
58 | O=c1oc2ccccc2c(NCc2cccc(F)c2)c1[N+](=O)[O-] | active: 25.1 µM
59 | COCc1cc(SC2CCCCC2)nc(C)n1 | inconclusive [inhibitor, single point]
60 | CC1=CN2C(=N)/C(=C/c3ccc(Sc4ccc(C)cc4)o3)C(=O)N=C2S1 | inconclusive [inhibitor, partial curve]
61 | O=S(=O)(NCCc1cn2ccccc2n1)c1ccc2c(c1)OCCO2 | inconclusive [inhibitor, single point]
62 | O=C(Nc1nccs1)c1cc(Cl)nc2ccccc12 | inconclusive [inhibitor, single point]
63 | COc1ccc(-c2noc(CSc3nnc(Cc4ccccc4)n3-c3ccc(Cl)cc3)n2)cc1 | inconclusive [inhibitor, partial curve]
64 | Cn1c(C(=O)NCCN2CCc3ccccc3C2)cc2c(=O)[nH]c3ccccc3c21 | inconclusive [inhibitor, partial curve]
65 | CCN(C(=O)COC(=O)c1cc(C)n(-c2ccc(F)cc2)c1C)C1CCS(=O)(=O)C1 (stereo not given) | inconclusive [inhibitor, single point]
66 | C/C(CC(=O)Nc1cc(C)ccn1)=N\NC(=O)c1cccc(C)c1 | inconclusive [inhibitor, full curve]
67 | COc1cc(C(=S)N(C)C)ccc1O | active: 10 µM
68 | Cc1ccc(C(OCC(O)CN2CCCCC2CO)c2ccccc2)cc1 (stereo not given) | inconclusive [inhibitor, single point]
69 | COc1cc2c(cc1OC)CN(C(=O)c1sc(-c3cnccn3)nc1C)CC2 | inactive
70 | N#CC(c1ccc(Cl)cc1)c1ccc(Cl)nn1 (stereo not given) | active: 6.31 µM
